Some of the results follow.
Key:
Assay in all cases: glycan array binding signal (z-score within array); higher = stronger binding
Conditions in all cases: glycan notation: IUPAC condensed, linker removed
[1] = target: Neu5Ac(a2-6)Gal(b1-4)GlcNAc(b1-2)Man(a1-3)[Man(a1-6)]Man(b1-4)GlcNAc(b1-4)GlcNAc
In short: (§1)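 Glycan array data were curated from 3228 arrays in the Consortium for Functional Glycomics database and kept only where the protein sequence was available. Glycan names were converted to IUPAC-condensed notation, and columns mapping to the same glycan were averaged. The binding signal is a within-array Z-score, averaged across arrays of the same protein sequence at different concentrations or buffers and across linkers. Negative Z-scores can be read as non-binding.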

[2] = target: Neu5Ac(a2-6)Gal(b1-4)GlcNAc(b1-2)Man(a1-3)[Neu5Ac(a2-3)Gal(b1-4)GlcNAc(b1-2)Man(a1-6)]Man(b1-4)GlcNAc(b1-4)GlcNAc
In short: as §1

[3] = target: Neu5Ac(a2-6)Gal(b1-4)GlcNAc(b1-2)Man(a1-3)[Neu5Ac(a2-6)Gal(b1-4)GlcNAc(b1-2)Man(a1-6)]Man(b1-4)GlcNAc(b1-4)GlcNAc
In short: as §1

[4] = target: Neu5Ac(a2-6)Gal(b1-4)GlcNAc(b1-2)Man(a1-3)[Neu5Ac(a2-6)Gal(b1-4)GlcNAc(b1-2)Man(a1-6)]Man(b1-4)GlcNAc(b1-4)[Fuc(a1-6)]GlcNAc
In short: as §1

[5] = target: Neu5Ac(a2-6)Gal(b1-4)GlcNAc(b1-2)Man(a1-6)Man(b1-4)GlcNAc(b1-4)GlcNAc
In short: as §1

[6] = target: Neu5Ac(a2-6)Gal(b1-4)GlcNAc(b1-2)Man(a1-6)[Gal(b1-4)GlcNAc(b1-2)Man(a1-3)]Man(b1-4)GlcNAc(b1-4)GlcNAc
In short: as §1

[7] = target: Neu5Ac(a2-6)Gal(b1-4)GlcNAc(b1-2)Man(a1-6)[GlcNAc(b1-2)Man(a1-3)]Man(b1-4)GlcNAc(b1-4)GlcNAc
In short: as §1

[8] = target: Neu5Ac(a2-6)Gal(b1-4)GlcNAc(b1-2)Man(a1-6)[Man(a1-3)]Man(b1-4)GlcNAc(b1-4)GlcNAc
In short: as §1

[9] = target: Neu5Ac(a2-6)Gal(b1-4)GlcNAc(b1-2)[Neu5Ac(a2-6)Gal(b1-4)GlcNAc(b1-4)]Man(a1-3)[GlcNAc(b1-4)][Neu5Ac(a2-6)Gal(b1-4)GlcNAc(b1-2)[Neu5Ac(a2-6)Gal(b1-4)GlcNAc(b1-6)]Man(a1-6)]Man(b1-4)GlcNAc(b1-4)GlcNAc
In short: as §1

[10] = target: Neu5Ac(a2-6)Gal(b1-4)GlcNAc(b1-2)[Neu5Ac(a2-6)Gal(b1-4)GlcNAc(b1-4)]Man(a1-3)[GlcNAc(b1-4)][Neu5Ac(a2-6)Gal(b1-4)GlcNAc(b1-4)Man(a1-6)]Man(b1-4)GlcNAc(b1-4)GlcNAc
In short: as §1

[11] = target: Neu5Ac(a2-6)Gal(b1-4)GlcNAc(b1-2)[Neu5Ac(a2-6)Gal(b1-4)GlcNAc(b1-6)]Man(a1-6)[Neu5Ac(a2-6)Gal(b1-4)GlcNAc(b1-2)Man(a1-3)][GlcNAc(b1-4)]Man(b1-4)GlcNAc(b1-4)GlcNAc
In short: as §1

[12] = target: Neu5Ac(a2-6)Gal(b1-4)GlcNAc(b1-3)Gal(b1-3)GlcNAc
In short: as §1

[13] = target: Neu5Ac(a2-6)Gal(b1-4)GlcNAc(b1-3)Gal(b1-4)GlcNAc
In short: as §1

[14] = target: Neu5Ac(a2-6)Gal(b1-4)GlcNAc(b1-3)Gal(b1-4)GlcNAc(b1-2)Man(a1-3)[Neu5Ac(a2-6)Gal(b1-4)GlcNAc(b1-3)Gal(b1-4)GlcNAc(b1-2)Man(a1-6)]GalNAc
In short: as §1

[15] = target: Neu5Ac(a2-6)Gal(b1-4)GlcNAc(b1-3)Gal(b1-4)GlcNAc(b1-3)Gal(b1-4)GlcNAc
In short: as §1

[16] = target: Neu5Ac(a2-6)Gal(b1-4)GlcNAc(b1-3)Gal(b1-4)GlcNAc(b1-3)Gal(b1-4)GlcNAc(b1-2)Man(a1-3)[Neu5Ac(a2-6)Gal(b1-4)GlcNAc(b1-3)Gal(b1-4)GlcNAc(b1-3)Gal(b1-4)GlcNAc(b1-2)Man(a1-6)]GalNAc
In short: as §1

[17] = target: Neu5Ac(a2-6)Gal(b1-4)GlcNAc(b1-3)Gal(b1-4)GlcNAc(b1-3)GalNAc
In short: as §1

[18] = target: Neu5Ac(a2-6)Gal(b1-4)GlcNAc(b1-3)Gal(b1-4)GlcNAc(b1-3)[Neu5Ac(a2-6)Gal(b1-4)GlcNAc(b1-3)Gal(b1-4)GlcNAc(b1-6)]GalNAc
In short: as §1

[19] = target: Neu5Ac(a2-6)Gal(b1-4)GlcNAc(b1-3)Gal(b1-4)GlcNAc(b1-6)[Gal(b1-3)]GalNAc
In short: as §1

[20] = target: Neu5Ac(a2-6)Gal(b1-4)GlcNAc(b1-3)Gal(b1-4)[Fuc(a1-3)]GlcNAc(b1-3)Gal(b1-4)[Fuc(a1-3)]GlcNAc
In short: as §1

[21] = target: Neu5Ac(a2-6)Gal(b1-4)GlcNAc(b1-3)GalNAc
In short: as §1

[22] = target: Neu5Ac(a2-6)Gal(b1-4)GlcNAc(b1-3)[Neu5Ac(a2-6)Gal(b1-4)GlcNAc(b1-6)]GalNAc
In short: as §1

[23] = target: Neu5Ac(a2-6)Gal(b1-4)GlcNAc(b1-6)GalNAc
In short: as §1

[24] = target: Neu5Ac(a2-6)Gal(b1-4)GlcNAc(b1-6)[Gal(b1-3)GlcNAc(b1-3)]Gal(b1-4)Glc
In short: as §1

[25] = target: Neu5Ac(a2-6)Gal(b1-4)GlcNAc(b1-6)[Gal(b1-3)]GalNAc
In short: as §1

[26] = target: Neu5Ac(a2-6)Gal(b1-4)GlcNAc6S
In short: as §1

Neu5Ac(a2-6)GalNAc = target: Neu5Ac(a2-6)GalNAc
In short: as §1

[27] = target: Neu5Ac(a2-6)GalNAc(b1-4)GlcNAc
In short: as §1

[28] = target: Neu5Ac(a2-6)GalNAc(b1-4)GlcNAc6S
In short: as §1

[29] = target: Neu5Ac(a2-6)GlcNAc(b1-4)GlcNAc
In short: as §1

[30] = target: Neu5Ac(a2-6)GlcNAc(b1-4)GlcNAc(b1-4)GlcNAc
In short: as §1

B1: BT3172pd (Bacteroides thetaiotaomicron) (protein)
chain: MLPLRAEHYYYKQISLKEGLPSNVRCILRDEQGFIWIGTKAGLGKFDGHQLKRYKHQANDPHSLLHNLIYQIAEDKQHNIWILTEKGIARYQQQSNNFTFPTDEEGNYITAYSFCLVPDGILFGGKDRIYKYSYKDSSLRLLQYFNANSFKITALSVWDSKTLLCCSRWTGLYLVDLQTGEHRRPPFDCGPEITSMITDSKNRIWIAPYSGGLRCYSRDGKLSASYTTHNSSLSNDIVLSLAEREEQLWIGTDGGGINILHPETGEISQLEYIPGRENYSLPANSILCLHNDYNNNVWAGSTCNGLISIREVSMKTYTDVVPGNDRGLSNGTVRSLYRQSPDSIWIGTDGGGINLFSPHTEKFTHYSSTWGDKVAFISGFTPGKLLISLFSKGVFVFNPATGEKQPFTIIDKETTTRLCNRGKSVNLYQNTPNTVLFLGDHIYQYHLKEKKFSTITEEEGKDIVGTLVPFDHQENLTYINDIKHIYELDDQTSRLKTVFECYTDTVISSVSHDEQGHFWIGSNFGLIHYDPVLKSRTLVPTNLFTEINMVLCDQKGKVWIGVDNMLFAYFIKEQKFVLFGESNGAIQNEYLPNARLVNEQGDAYIGGVKGMLRIDGQLLLNTSEMPELQLLDITINGESANHEWYNHPAKISVPWNSNISIRIMSREEDIFRQKIYRYQIEGLNNEYTESYNPELVIRSLLPGSYRIMASCTAKDGSWIPDQQVLELTVLPPWYRTHHHHHH
glycan array binding signal (z-score) [1]: -0.184 | glycan array binding signal (z-score) [2]: -0.143 | glycan array binding signal (z-score) [3]: -0.353 | glycan array binding signal (z-score) [4]: -0.072 | glycan array binding signal (z-score) [5]: 0.057 | glycan array binding signal (z-score) [6]: 0.765 | glycan array binding signal (z-score) [7]: -0.213 | glycan array binding signal (z-score) [8]: -0.052 | glycan array binding signal (z-score) [9]: -0.422 | glycan array binding signal (z-score) [10]: -0.545 | glycan array binding signal (z-score) [11]: -0.466 | glycan array binding signal (z-score) [12]: -0.335 | glycan array binding signal (z-score) [13]: -0.612 | glycan array binding signal (z-score) [14]: -0.692 | glycan array binding signal (z-score) [15]: -0.644 | glycan array binding signal (z-score) [16]: -0.613 | glycan array binding signal (z-score) [17]: -0.27 | glycan array binding signal (z-score) [18]: 0.33 | glycan array binding signal (z-score) [19]: 6.02 | glycan array binding signal (z-score) [20]: -0.079 | glycan array binding signal (z-score) [21]: 0.187 | glycan array binding signal (z-score) [22]: 5.76 | glycan array binding signal (z-score) [23]: 0.094 | glycan array binding signal (z-score) [24]: -0.495 | glycan array binding signal (z-score) [25]: 1.55 | glycan array binding signal (z-score) [26]: -0.449 | glycan array binding signal (z-score) (Neu5Ac(a2-6)GalNAc): 0.143 | glycan array binding signal (z-score) [27]: 0.093 | glycan array binding signal (z-score) [28]: 0.158 | glycan array binding signal (z-score) [29]: 0.054 | glycan array binding signal (z-score) [30]: -0.302

Reference: the supplement of paper PMC8728848
